According to PubChem BioAssay AID2708 (National Center for Advancing Translational Sciences (NCATS), 2010):
The shares of active, inactive and inconclusive entries below differ from those in the screen. Potencies of inconclusive entries are left out as doubtful fits. The source made the active and inactive calls. The call rests on the fitted dose curve; in most records, active means well fitted inhibition curve with a large enough effect; inconclusive means small, poorly fitted or top-dose-only effect; inactive means no such curve, though single readings can be large or run the other way.

biological target: ATP-dependent DNA helicase Q1 (Homo sapiens) (UniProt P46063); test: Confirmation qHTS Assay for Inhibitors of RecQ-Like Dna Helicase 1 (RECQ1); details: RECQ1 helicase DNA unwinding, fluorescence; series mostly up to 229 µM; further: nearly all actives have a fitted effect of over 45% in size
Method in brief: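 RECQ1T1 50 nM; forked duplex (20 bp + 30-nt ss tails) 200 nM, ATP 2 mM final; pH 8.0, 2 mM MgCl2, 2.5 ug/ml poly(dI-dC); 15 min compound preincubation; discontinuous kinetic read over 2 h at RT.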
Potency means the concentration at half of the fitted maximal effect; tags describe the fitted curve by direction and shape.

Sequence of UniProt P46063 (P46063 whole entry, looked up): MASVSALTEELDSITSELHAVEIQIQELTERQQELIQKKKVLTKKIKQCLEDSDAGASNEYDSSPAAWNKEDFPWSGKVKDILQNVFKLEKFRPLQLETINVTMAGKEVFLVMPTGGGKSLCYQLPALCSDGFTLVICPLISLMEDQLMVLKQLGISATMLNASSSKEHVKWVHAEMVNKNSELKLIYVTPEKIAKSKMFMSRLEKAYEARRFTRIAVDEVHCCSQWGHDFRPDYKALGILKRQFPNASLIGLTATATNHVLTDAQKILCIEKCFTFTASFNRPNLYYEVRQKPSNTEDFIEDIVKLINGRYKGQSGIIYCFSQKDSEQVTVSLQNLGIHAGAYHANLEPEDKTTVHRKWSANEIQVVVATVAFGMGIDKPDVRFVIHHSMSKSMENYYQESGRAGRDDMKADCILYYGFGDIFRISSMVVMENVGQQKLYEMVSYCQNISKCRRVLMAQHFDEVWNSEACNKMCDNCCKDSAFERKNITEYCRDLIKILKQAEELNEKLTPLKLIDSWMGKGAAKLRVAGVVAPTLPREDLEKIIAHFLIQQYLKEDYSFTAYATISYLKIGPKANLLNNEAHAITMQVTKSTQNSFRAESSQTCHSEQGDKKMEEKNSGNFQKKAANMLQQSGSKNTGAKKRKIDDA

| SMILES | Potency |
| --- | --- |
| CC(NC(=O)/C(=C/c1cccc([N+](=O)[O-])c1)NC(=O)c1ccco1)C(=O)O (configuration not stated) | inactive |
| Cc1c2c(c(O)c3c(O)cccc13)C(=O)O[C@H]2C1C(N(C)C)C(O)=C(C(N)=O)C(=O)[C@H]1O (some centres not stated) | active: 39.8 µM |
| Cc1cc(C)cc(NC(=O)c2nnn(Cc3cc(C)ccc3C)c2N)c1 | inconclusive [inhibitor, partial curve, poor fit] |
| O=C(O)CC(NC(=O)COc1ccc(Cl)cc1Cl)C(=O)O (configuration not stated) | inactive |
| Oc1ccc([C@@H]2CNCCc3c2cc(O)c(O)c3Cl)cc1 | inconclusive [inhibitor, full curve, poor fit] |
| Oc1ccc(Nc2nc(NCC3CCCO3)c3ccccc3n2)cc1 (configuration not stated) | active: 25.1 µM |
| Cc1cc(N)c2ccccc2[n+]1CCCCCCCCCC[n+]1c(C)cc(N)c2ccccc21 | inconclusive [inhibitor, full curve, poor fit] |
| C=CCSC1=N/C(=C\C=C\c2ccco2)C(=O)S1 | active: 44.7 µM |
| COc1ccc(N=C2NC(=O)/C(=C\c3ccco3)S2)cc1 | inconclusive [inhibitor, single point] |
| CC(=O)OC1CCC2C3CCc4cc(O)ccc4C3CCC12C (configuration not stated) | inactive |
| COc1ccc(-c2csc(N3CCN(c4cc(C)nc5ccccc45)CC3)n2)cc1OC | inactive |
| NCCc1ccc(O)c(O)c1 | inconclusive [inhibitor, full curve, poor fit] |
| CCCC1=C/C(=C/c2ccc(-c3ccccc3OC)o2)C(=O)O1 | inconclusive [inhibitor, partial curve] |
| CCc1cc(=O)oc2cc(C)c(CN3CCCCC3)c(O)c12 | inconclusive [inhibitor, single point] |
| CCn1c(CSc2nnc3ccccn23)nc2cc(C(=O)O)ccc21 | active: 44.7 µM |
| O=C(CCCN1C(=O)/C(=C\c2cccs2)SC1=S)NNC(=O)c1cccnc1 | inconclusive [inhibitor, partial curve, poor fit] |

| SMILES | Potency |
| --- | --- |
| C/C(C/C(C)=C1/SC(=S)NC1=O)=C1\SC(=S)NC1=O | inconclusive [inhibitor, partial curve] |
| C=CCn1c(=O)[nH]c2cc(C(=O)N3CCN(c4ccc(C(C)=O)cc4)CC3)ccc2c1=O | inconclusive [inhibitor, full curve] |
| CCn1c(SCC(=O)Nc2nc(-c3ccccc3)cs2)nnc1-c1ccccc1 | inconclusive [inhibitor, partial curve, poor fit] |
| COc1cc(NC(=O)c2ccccc2)c(OC)cc1NC(=O)Cc1cccs1 | inconclusive [inhibitor, single point] |
| O=C(O)c1cc(-c2ccc(/C=C3/SC(=S)N(Cc4ccccc4)C3=O)o2)ccc1Cl | inconclusive [inhibitor, single point] |
| CC1CN(S(=O)(=O)c2ccc(C(=O)Nc3ccc(S(=O)(=O)Nc4nccs4)cc3)cc2)CC(C)O1 (configuration not stated) | inactive |
| O=C(N/N=C/c1ccc[nH]1)c1ccccc1O | inactive |
| N=C1S/C(=C\c2ccc(-c3ccccc3C(=O)O)o2)C(=O)N1c1ccc2c(c1)OCO2 | inconclusive [inhibitor, single point] |
| C[C@@]1(C(=O)O)NCCc2cc(O)c(O)cc21 | inactive |
| CCn1c(CSc2nnc(-c3ccncc3)n2C)nc2cc(C(=O)O)ccc21 | active: 39.8 µM |
| Cn1c(SCC(=O)N/N=C/C=C/c2ccco2)nc2ccccc21 | inconclusive [inhibitor, single point] |
| O=C(O)c1cccc(Cn2c(Cl)c(/C=N/NC(=O)c3cc4ccccc4cc3O)sc2=O)c1 | inconclusive [inhibitor, single point] |
| Cc1ccc(C=C2C(=O)c3ccccc3C2=O)s1 | inconclusive [inhibitor, partial curve] |
| Cc1ccc(C)c(-c2nc3ccc(N)cc3[nH]2)c1 | inactive |
| COc1ccc(CCNc2ncnc3c2[nH]c2cc(OC)c(OC)cc23)cc1OC | inconclusive [inhibitor, full curve, poor fit] |
| O=C(O)c1cccc(-n2cccc2/C=C2/NC(=O)N(c3ccc(Cl)cc3)C2=O)c1 | inconclusive [inhibitor, full curve] |
